# Whole data set: some 33,000 sequences, median “E-score (-0.5 to 0.5)” near -0.056, cut for the highest 2% near 0.38. This is one part of the list.
# Target: Stb4 (UniProt P50104)
# Assay: PBM E-score (8-mer binding enrichment) (E-score (-0.5 to 0.5)); higher = stronger / more preferred TF binding; most listed sequences are background and not binding sites
# Details: protein concentration: 200 nM; construct: GST-DNA-binding domain
# Outline: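 Yeast transcription factors, full-length or as DNA-binding domains, were expressed with a GST tag using PURExpress in vitro transcription/translation. At about 100-200 nM they were applied to universal all-10-mer Agilent arrays, double-stranded by primer extension on fresh or once-stripped slides. Fluorescent anti-GST detected bound protein, and masliner normalised the scans. E-scores for ungapped eight-base words, pooled with reverse complements, came from the Universal PBM Analysis Suite.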
row,Sequence,PBM E-score
1,ACCGAGTA,0.321
2,GGCTTATA,-0.0784
3,TCCCGCCA,0.204
4,CTATTTAC,0.152
5,ATTGGGCG,0.0153
6,AATCACGC,-0.15
7,GAGCTGAA,-0.112
8,ATATATTG,0.118
9,CATTCCTC,0.0887
10,GACCCTTA,-0.131
11,AAGATTAA,-0.131
12,GAAACCTA,0.00342
13,AAGCTACA,-0.239
14,ATGCTTAA,-0.0401
15,CATCACGC,0.0419
16,GCGTTCAC,0.088
17,ATGTTGCC,0.125
18,CAAGCCTG,-0.271
19,ACTACAGT,-0.261
20,TCATGTAA,-0.0942
21,AAATGCGT,-0.129
22,AGCGGCCC,0.0308
23,CATAGACA,-0.224
24,ATTTGTAC,0.00201
25,GAGTCTGA,-0.146

row,Sequence,PBM E-score
1,GGTCTCAA,-0.0398
2,ATTATTAG,-0.082
3,CCCAACAA,-0.178
4,AGCATGCT,-0.233
5,CGACACAG,0.0241
6,CCTAAACC,-0.0812
7,CTAGATCC,0.0786
8,ACGGTGAA,-0.0472
9,GTCGTCAC,-0.231
10,GCCTGTGA,-0.349
11,AGCACTTA,-0.0898
12,ATTAGGTC,0.0421
13,ACCGCCGG,0.283
14,GAATTAAA,0.129
15,GTTGTTCA,0.0713
16,TAGTACTA,-0.304
17,CTACGTTA,-0.0408
18,TTCTCAAA,-0.221
19,CCAGTTTC,-0.0376
20,CACCCAGG,-0.115
21,TCCAAGAA,-0.133
22,AAGCTAAG,-0.0253
23,CCACGGAG,0.132
24,CAAACTTA,-0.096
25,ATTTTGGG,-0.0867

row,Sequence,PBM E-score
1,CACATACA,-0.153
2,AAGCTTAA,-0.125
3,GCTCTGCA,-0.171
4,CACCACGG,-0.0631
5,AACTACCA,-0.189
6,GGTCGTCA,-0.113
7,CTAAACCC,0.047
8,AAAGATCG,-0.0762
9,CGTCTCAG,-0.235
10,ACCTCTCC,-0.0306
11,CTTAATAC,-0.176
12,AACTCGAG,-0.0743
13,GAAGGGAA,-0.108
14,GAATTTGA,0.141
15,TAAGACTA,-0.196
16,GAGAATCC,0.0305
17,CAGGGTCC,-0.0926
18,CAGATTAC,-0.027
19,ACGATGTA,-0.222
20,CGATGATA,0.122
21,CATAGCTC,-0.073
22,CGAGCGTA,0.0494
23,ACAGTGGA,-0.005
24,GTACAGTA,-0.134
25,AACAGTGA,-0.0385

row,Sequence,PBM E-score
1,CAGAAAGG,-0.148
2,TTACGCAA,-0.0396
3,AGTCACAG,-0.267
4,CCCCCGCA,-0.158
5,AACGCATA,0.03
6,CTGTGTTC,-0.0183
7,TCCGAAGA,0.458
8,CAATACCC,0.126
9,ACCGACGG,0.359
10,CGCAATAG,-0.0449
11,CGATGGCA,0.0181
12,CGGAGAAC,0.162
13,CAGGGAAG,-0.169
14,TACGCTCA,-0.372
15,GTGATAAA,-0.028
16,GCGTCCAA,-0.252
17,CTTCAATA,-0.0834
18,TGGCGAAA,-0.11
19,TAGCACAA,-0.27
20,AGCTAATC,-0.0739
21,TAGCCAGA,-0.109
22,GTCCACGA,-0.137
23,AGAGTCTG,-0.175
24,ACGCTCGC,-0.227
25,GGAGCTAC,0.00778

row,Sequence,PBM E-score
1,GAGATCTA,-0.103
2,CATATGAA,-0.131
3,GTACTCGA,-0.238
4,TGTTACAA,-0.0172
5,AATTGTAA,-0.126
6,ACAGGGAA,-0.0341
7,AGCCCAGC,0.174
8,TAGACGAA,-0.35
9,AGAGTGCA,-0.117
10,GAGTGTCA,0.0457
11,AAGAACCC,-0.0513
12,ACCATAAA,-0.147
13,CCCAATAC,-0.133
14,GGAGTGTA,0.0839
15,ATTTACCC,0.194
16,GCCCACCA,-0.176
17,AACTTGTA,-0.0932
18,CCCAAGCG,-0.122
19,CTTTGGTA,-0.0284
20,ATTAACAC,0.00046
21,AGGAACGG,0.149
22,CTTAAAGA,0.0139
23,CATAACAG,-0.218
24,CAAGAGTG,-0.228
25,CGTCAACA,-0.123

row,Sequence,PBM E-score
1,AGGTGATA,-0.225
2,AGCTTAGA,-0.133
3,TACGAAGA,-0.0932
4,AGCTTACT,-0.123
5,ACATATTG,-0.216
6,AAGGCAGC,-0.192
7,CCAGAAAG,-0.0194
8,CACCCGGG,0.323
9,CCTGTCCG,0.0761
10,CGGGAGCC,0.258
11,GGAAGGCC,0.121
12,GTGCAAAC,-0.0575
13,CATATGCA,-0.125
14,CCTGCTTC,-0.0591
15,GTGTAGCA,-0.0981
16,ACCCAAAG,-0.161
17,ATTCGGAG,0.324
18,CCTTGTAG,-0.0871
19,GGGCCCGA,0.278
20,CATAATGA,-0.184
21,ATTGTGCA,-0.126
22,CTCTCAAG,-0.216
23,GAAGTCAC,0.0134
24,AGCTCTTC,-0.018
25,ATCGACTG,0.0856

row,Sequence,PBM E-score
1,CTCCCCCC,-0.156
2,TATTTACA,-0.17
3,CAGCAACA,-0.112
4,AGGCACCC,-0.141
5,CCGGGCAC,0.283
6,ATCAATCG,0.0502
7,CGATGGTC,-0.158
8,AACACTCC,0.0837
9,AAAGCTCC,0.0622
10,CTCCGACC,0.315
11,AACGGGTG,0.209
12,ACCCGCTG,0.119
13,CCCCGGCG,0.126
14,AGCTAAGC,-0.279
15,CAACTCCG,0.237
16,ATCCGCAA,0.245
17,AACGTAGA,0.0138
18,CTCTTGCC,0.084
19,CTTTTCGC,0.0638
20,TCAAAACA,-0.0957
21,TCCGACAA,0.355
22,CCTGCCAC,-0.186
23,TATAAGAA,-0.0781
24,CGGGTGAG,0.332
25,ATGCTCTA,-0.18

row,Sequence,PBM E-score
1,AATTTGTC,-0.117
2,CTTATAAG,0.174
3,GAATGAAA,0.073
4,ACTAGATG,-0.242
5,CGGTGTCA,0.0521
6,ATGGTCTG,-0.151
7,CATTCGAA,-0.0572
8,ATTCGTTG,0.0153
9,GATGTAAC,-0.0279
10,GATGGGAC,-0.0311
11,AAACGGGC,-0.0189
12,TCACTCAA,-0.253
13,ATATTTCG,0.284
14,AAGTATGC,-0.196
15,GCTTACCC,0.177
16,GCTTAATA,-0.103
17,ATGCCGTC,0.0989
18,ACGGGTGA,0.179
19,CGTCTTCA,-0.135
20,GCCCACGC,-0.168
21,AAATGTAC,-0.0404
22,ACGAGTCA,-0.294
23,CATAATTC,-0.0122
24,TAAACTAA,-0.0455
25,CGAAGAAA,0.111

row,Sequence,PBM E-score
1,AGTGATCC,0.0745
2,AAATTCCG,0.387
3,TGCCGGAA,0.419
4,GATCCACA,0.0527
5,GCTGTTTA,-0.0043
6,TCACACCA,-0.104
7,GACGACTA,-0.2
8,ACACTATC,0.0635
9,AGCCGGTC,0.0773
10,CCTCTCCA,-0.309
11,CAGAATGC,0.0966
12,CGTAGTGC,-0.204
13,CGAGAACA,0.03
14,GATATGCC,0.0428
15,CCGAGCAA,0.406
16,CAGATAGA,-0.184
17,CCGCACCA,0.125
18,CCGTGGTC,0.0825
19,GGAAGCCA,0.175

# Reference: the supplement of paper PMC3334620
